Measurements taken from the supplement of paper PMC4967469.
By IC50 is meant the dose at which the fit gives 50% viability; fits outside the tested doses are given as limits. AUC sums up the same curve from the lowest dose to the 256-fold higher top dose; it is 1 without any effect and falls as sensitivity rises. For some of these results: The top dose, if marked as inferred, comes from the curve model; the source does not state it. For some of these results: Where an entry number is given, a second screen of the drug exists; the two often differ.

How the values were obtained:
Experiment in all cases: Viability of human cancer cell lines after 72 h of drug (GDSC screen)
WH-4-023 = compound: COc1ccc(N(C(=O)Oc2c(C)cccc2C)c2ccnc(Nc3ccc(N4CCN(C)CC4)cc3)n2)c(OC)c1 [WH-4-023]; conditions: top dose 5.12 µM; top dose inferred
Method: (§1)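 Human cancer cell lines in 384-well plates, medium with 10% serum, drug for 72 h over a 256-fold dose range (nine 2-fold or five 4-fold steps up to the top dose). Adherent lines were fixed and stained with the nucleic acid dye Syto60, suspension lines read with resazurin; signal relative to control wells, capped at 0 and 100%. One two-parameter sigmoid per drug and line, fitted in a mixed model over all curves with the slope shared within a line.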

UNC0638 = compound: COc1cc2c(NC3CCN(C(C)C)CC3)nc(C3CCCCC3)nc2cc1OCCCN1CCCC1 [UNC0638]
Method: as §1

GSK690693 = compound: CCn1c(-c2nonc2N)nc2c(C#CC(C)(C)O)ncc(OC[C@H]3CCCNC3)c21 [GSK690693]; conditions: top dose 10.24 µM; top dose inferred
Method: as §1

PI-103 = compound: Oc1cccc(-c2nc(N3CCOCC3)c3oc4ncccc4c3n2)c1 [PI-103]; conditions: top dose 10.24 µM
Method: as §1

SB-505124 = compound: Cc1cccc(-c2[nH]c(C(C)(C)C)nc2-c2ccc3c(c2)OCO3)n1 [SB-505124]; conditions: top dose 10 µM; top dose inferred
Method: as §1

BX-795 = compound: O=C(NCCCNc1nc(Nc2cccc(NC(=O)N3CCCC3)c2)ncc1I)c1cccs1 [BX-795]; conditions: top dose 5 µM; top dose inferred
Method: as §1

[1] = top dose 20 µM, screen: GDSC drug entry 1236, top dose inferred
[2] = top dose 40 µM, screen: GDSC drug entry 245

Row | Cell Line | AUC (WH-4-023) | IC50 (WH-4-023) [µM] | AUC (UNC0638; [1]) | IC50 (UNC0638; [1]) [µM] | AUC (UNC0638; [2]) | IC50 (UNC0638; [2]) [µM] | AUC (GSK690693) | IC50 (GSK690693) [µM] | AUC (PI-103) | IC50 (PI-103) [nM] | AUC (SB-505124) | IC50 (SB-505124) [µM] | AUC (BX-795) | IC50 (BX-795) [µM]
1 | SCC-15 (head and neck, adherent) | 0.801 | 3.56 | 0.852 | > 20 | 0.834 | 39.7 | 0.961 | > 10.2 | 0.868 | > 10200 | 0.909 | > 10 | 0.792 | 3.17
2 | SKM-1 (haematopoietic neoplasm, suspension) | 0.984 | > 5.12 | 0.68 | 4.22 |  |  |  |  |  |  | 0.966 | > 10 | 0.668 | 0.964
3 | SU-DHL-1 (anaplastic large cell lymphoma, suspension) | 0.995 | > 5.12 |  |  | 0.915 | 28.7 | 0.945 | 9.59 | 0.204 | 121 |  |  |  | 
4 | SU-DHL-8 (B-cell lymphoma, suspension) | 0.959 | > 5.12 | 0.806 | 9.39 | 0.656 | 6.55 | 0.821 | 5.39 | 0.17 | 70.1 | 0.981 | > 10 | 0.98 | > 5
5 | SW872 (soft tissue, adherent) | 0.653 | 0.811 | 0.93 | > 20 | 0.887 | 37.4 | 0.989 | > 10.2 | 0.843 | 6230 | 0.977 | > 10 |  | 
6 | TALL-1 (T-cell lymphoblastic leukaemia, suspension) | 0.982 | > 5.12 |  |  | 0.753 | 12.8 | 0.99 | > 10.2 | 0.895 | > 10200 |  |  |  | 
7 | TC-71 (Ewing sarcoma, adherent) | 0.992 | > 5.12 | 0.825 | 9.4 | 0.927 | > 40 | 0.975 | > 10.2 | 0.478 | 563 | 0.965 | > 10 | 0.787 | 1.78
8 | TE-10 (oesophagus, adherent) | 0.824 | 2.97 | 0.894 | > 20 | 0.936 | > 40 | 0.986 | > 10.2 | 0.845 | 7190 | 0.967 | > 10 | 0.927 | > 5
9 | TGBC24TKB (biliary tract, adherent) | 0.621 | 0.672 | 0.972 | > 20 | 0.905 | > 40 | 0.987 | > 10.2 | 0.985 | > 10200 | 0.952 | > 10 |  | 
10 | THP-1 (acute myeloid leukaemia, suspension) | 0.983 | > 5.12 | 0.826 | 10.5 | 0.56 | 3.58 | 0.826 | 5.38 | 0.541 | 818 | 0.985 | > 10 | 0.991 | > 5
